The list shows a part of the results, in another mix than the full data. Effects have a minus sign here.
The compounds below were run against human ether-à-go-go-related gene (hERG) potassium channel (human, UniProt Q12809) (assay: primary screen, population patch clamp on CHO cells stably expressing hERG; higher = less effect of the substance).
Method: Briefly, Chinese hamster ovary (CHO) cells stably expressing the hERG channel were dislodged from tissue culture flasks and dispensed into PPC plates. […] During the recording, background leak currents were estimated by a 100 ms step to -80 mV from an initial holding potential of -70 mV and subtracted from the subsequent current measurement. The campaign was conducted in two phases using slight differences in recording protocol. In the first phase, the initial voltage pulse used a 100 ms step to -30 mV from a holding potential of -70 mV, a 2 s conditioning step to +25 mV, and a 2 s test step to -30 mV. During the second phase of the screen, the potential during the conditioning step was raised to +45 mV. In both phases of the campaign, a secondary voltage pulse was applied using the same parameters as the second phase initial pulse. The initial and secondary pulses were applied in the absence of compound, and upon application of 1 μM and 10 μM test concentrations. Small molecule effects on hERG current density were quantified by […].
With `CCN(CC)CCOC(=O)C1(C2CCCCC2)CCCCC1.Cl` the “hERG current change (%, negative = inhibition) at 1uM” value was 4.85%. In the case of `Cl.Fc1ccc(C(c2ccc(F)cc2)N2CCN(C/C=C/c3ccccc3)CC2)cc1`, the “hERG current change (%, negative = inhibition) at 1uM” value is reported as 3.53%. For `CCN(CC)CCOc1ccc(/C(=C(\Cl)c2ccccc2)c2ccccc2)cc1.O=C(O)CC(O)(CC(=O)O)C(=O)O`, the “hERG current change (%, negative = inhibition) at 1uM” value was 11.6%. With `CN(C)CCN(Cc1cccs1)c1ccccn1.Cl` the “hERG current change (%, negative = inhibition) at 1uM” value was -57%. `Cl.O.Oc1ccc2c3c1O[C@H]1[C@@H](O)CC[C@@]4(O)[C@@H](C2)N(CC2CCC2)CC[C@]314` was tested, and the “hERG current change (%, negative = inhibition) at 1uM” value was -6.55%. For `Clc1ccc(COC(Cn2ccnc2)c2ccc(Cl)cc2Cl)c(Cl)c1.O=[N+]([O-])O` (centres unmarked), the “hERG current change (%, negative = inhibition) at 1uM” value was -4.53%. In the case of `Cl.Oc1ccc2c3c1O[C@H]1[C@@H](O)CC[C@@]4(O)[C@@H](C2)N(CC2CCC2)CC[C@]314`, the “hERG current change (%, negative = inhibition) at 1uM” value is reported as 6.6%. For `C(=C\c1ccccc1)/CN1CCN(C(c2ccccc2)c2ccccc2)CC1`, the “hERG current change (%, negative = inhibition) at 1uM” value was 6.47%. `CCN(CC)CCOc1ccc(/C(=C(/Cl)c2ccccc2)c2ccccc2)cc1.O=C(O)CC(O)(CC(=O)O)C(=O)O` was tested, and the “hERG current change (%, negative = inhibition) at 1uM” value was 17.3%. In the case of `CCN[C@H]1C[C@H](C)S(=O)(=O)c2sc(S(N)(=O)=O)cc21.Cl`, the “hERG current change (%, negative = inhibition) at 1uM” value is reported as 14.9%. With `CCCN1CCC[C@@H]2Cc3[nH]ncc3C[C@H]21.Cl` the “hERG current change (%, negative = inhibition) at 1uM” value was 11.4%. With `CN1CCC(=C2c3ccccc3C=Cc3ccccc32)CC1.Cl` the “hERG current change (%, negative = inhibition) at 1uM” value was 14.5%. In the case of `CN1C2CCC1CC(OC(c1ccccc1)c1ccccc1)C2.CS(=O)(=O)O` (centres unmarked), the “hERG current change (%, negative = inhibition) at 1uM” value is reported as -37.7%. With `CCN(CC)CC#CCOC(=O)C(O)(c1ccccc1)C1CCCCC1.Cl` (centres unmarked) the “hERG current change (%, negative = inhibition) at 1uM” value was 2.55%. `Br.CN1[C@@H]2CC[C@H]1CC(OC(=O)C(O)c1ccccc1)C2` (some centres unmarked) was tested, and the “hERG current change (%, negative = inhibition) at 1uM” value was 17.2%. In the case of `CN[C@H]1CCc2cc(OC)c(OC)c(OC)c2-c2ccc(OC)c(=O)cc21`, the “hERG current change (%, negative = inhibition) at 1uM” value is reported as 8.66%. In the case of `Cc1ccccc1C(OCCN(C)C)c1ccccc1.O=C(O)CC(O)(CC(=O)O)C(=O)O` (centres unmarked), the “hERG current change (%, negative = inhibition) at 1uM” value is reported as 0.703%. `Clc1ccc(CO/N=C(\Cn2ccnc2)c2ccc(Cl)cc2Cl)c(Cl)c1.O=[N+]([O-])O` was tested, and the “hERG current change (%, negative = inhibition) at 1uM” value was 15.3%. `CN(C)C(=O)C(CCN1CCC(O)(c2ccc(Cl)cc2)CC1)(c1ccccc1)c1ccccc1.Cl` was tested, and the “hERG current change (%, negative = inhibition) at 1uM” value was -81.7%. For `CCCCCCCCc1ccc(O)cc1`, the “hERG current change (%, negative = inhibition) at 1uM” value was 6.37%. In the case of `Cl.Oc1ccc2c3c1OC1C(O)CC[C@@]4(O)[C@@H](C2)N(CC2CCC2)CC[C@]314` (some centres unmarked), the “hERG current change (%, negative = inhibition) at 1uM” value is reported as 6.66%. `Clc1ccc(CSC(Cn2ccnc2)c2ccc(Cl)cc2Cl)cc1.O=[N+]([O-])O` (centres unmarked) was tested, and the “hERG current change (%, negative = inhibition) at 1uM” value was 14.8%. In the case of `CN(C)CC/C=C1\c2ccccc2COc2ccccc21.Cl`, the “hERG current change (%, negative = inhibition) at 1uM” value is reported as 2.57%. In the case of `CCCCc1oc2ccccc2c1C(=O)c1cc(I)c(OCCN(CC)CC)c(I)c1.Cl`, the “hERG current change (%, negative = inhibition) at 1uM” value is reported as 14.3%. For `CC(C)(O)c1ccccc1CC[C@@H](SCC1(CC(=O)[O-])CC1)c1cccc(/C=C/c2ccc3ccc(Cl)cc3n2)c1.[Na+]`, the “hERG current change (%, negative = inhibition) at 1uM” value was 9.16%. `C[C@@H]1C[C@H]2[C@@H]3CCC4=CC(=O)C=C[C@]4(C)[C@@]3(F)[C@@H](O)C[C@]2(C)[C@@]1(O)C(=O)COP(=O)([O-])[O-].[Na+]` was tested, and the “hERG current change (%, negative = inhibition) at 1uM” value was 10.7%.
